# Results taken from PMC4336329 (PLoS ONE, 2015).
# In all, about 310,000 compounds went through this assay and about 14,000 (4.5%) showed an effect of 50% or more. The effect is printed as a negative number. The list shows a part of the results.
# Target: human ether-à-go-go-related gene (hERG) potassium channel (human, UniProt Q12809)
# Assay: primary screen, population patch clamp on CHO cells stably expressing hERG
# 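Also: peak tail current of the secondary pulse compared with the same well before compound.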
# human ether-à-go-go-related gene (hERG) potassium channel, sequence (Q12809 whole entry, looked up): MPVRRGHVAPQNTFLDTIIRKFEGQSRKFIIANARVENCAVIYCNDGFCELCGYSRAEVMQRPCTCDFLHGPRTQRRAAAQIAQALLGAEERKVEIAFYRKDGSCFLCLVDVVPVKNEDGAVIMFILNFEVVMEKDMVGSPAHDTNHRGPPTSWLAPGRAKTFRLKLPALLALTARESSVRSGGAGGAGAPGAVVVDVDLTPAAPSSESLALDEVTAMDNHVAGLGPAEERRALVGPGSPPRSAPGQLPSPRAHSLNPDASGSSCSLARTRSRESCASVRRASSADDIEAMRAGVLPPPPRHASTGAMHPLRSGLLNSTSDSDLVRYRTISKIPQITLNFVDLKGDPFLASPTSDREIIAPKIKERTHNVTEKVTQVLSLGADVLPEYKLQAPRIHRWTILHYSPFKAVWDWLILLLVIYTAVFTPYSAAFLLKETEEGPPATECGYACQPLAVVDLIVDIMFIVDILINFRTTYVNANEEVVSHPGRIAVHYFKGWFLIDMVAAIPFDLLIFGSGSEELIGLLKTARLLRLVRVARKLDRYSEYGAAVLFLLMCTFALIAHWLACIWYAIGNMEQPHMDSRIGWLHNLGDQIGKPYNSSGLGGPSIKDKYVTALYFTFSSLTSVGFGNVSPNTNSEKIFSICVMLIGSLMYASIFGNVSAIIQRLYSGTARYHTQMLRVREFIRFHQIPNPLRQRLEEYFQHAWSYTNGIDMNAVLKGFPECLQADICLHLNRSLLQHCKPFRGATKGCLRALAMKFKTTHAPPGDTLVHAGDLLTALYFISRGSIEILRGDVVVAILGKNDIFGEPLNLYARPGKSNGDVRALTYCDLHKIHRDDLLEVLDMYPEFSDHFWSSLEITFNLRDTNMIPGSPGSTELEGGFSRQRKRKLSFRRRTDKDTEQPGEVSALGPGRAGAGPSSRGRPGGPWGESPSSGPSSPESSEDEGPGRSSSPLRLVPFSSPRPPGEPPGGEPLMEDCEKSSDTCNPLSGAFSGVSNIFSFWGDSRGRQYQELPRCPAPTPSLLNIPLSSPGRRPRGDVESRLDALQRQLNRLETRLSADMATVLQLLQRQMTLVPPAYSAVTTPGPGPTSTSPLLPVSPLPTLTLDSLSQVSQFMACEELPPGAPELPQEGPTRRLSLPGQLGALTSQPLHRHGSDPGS
row,SMILES,"hERG current change (%, negative = inhibition) at 10uM"
1,CCn1c(SCc2ccc(C#N)cc2)nnc1-c1ccc(S(=O)(=O)N2CCCCC2)cc1,-70.7%
2,C[C@H](NC(=O)CCC1CCC(=O)N1)c1ccccc1 (stereo partly drawn),12.3%
3,CCN(CC)CCCN(C(=O)c1ccccc1C)c1nc(-c2ccc(OC)cc2)cs1,-55.5%
4,CCN(CC)S(=O)(=O)c1cccc(-c2nnc(SCCOc3ccccc3C)o2)c1,-0.634%
5,C=CCNC(=O)NC(=O)COC(=O)CNS(=O)(=O)c1ccc(F)c(F)c1F,20.4%
6,O=C(O)CC/C(=N/NC(=O)CNC(=O)Cc1ccc(Cl)cc1)c1ccccc1,11.2%
7,O=C(Nc1ccc(C(=O)NCCCN2CCCCC2)cc1)C1=CSCCO1,0.714%
8,COc1ccc(NC(=O)CSc2nc(O)cc(=O)n2-c2ccccc2OC)cc1,22.1%
9,Cc1ccc(C(C)C)c(OCC(=O)Nn2c(=O)[nH]c3ccccc3c2=O)c1,-12.6%
10,CC(C)Oc1cccc(C(=O)C2CCCN(C(=O)c3cncs3)C2)c1 (stereo not drawn),-23.9%
11,CN(C(=O)CC1C(=O)NCCN1Cc1ccc2ccccc2c1)C1CCOCC1 (stereo not drawn),1.19%
12,COc1ccc(OCC(=O)O/N=C(\N)Cc2cccs2)cc1,0.0915%
13,Cc1ccccc1NC(=O)NC1CCCc2ccccc21 (stereo not drawn),26.2%
14,N=c1c(C(=O)NCC2CCCO2)cc2c(=O)n3ccccc3nc2n1Cc1ccco1 (stereo not drawn),-78.7%
15,Cc1ccc2c(c1)cc(CN(Cc1ccco1)S(=O)(=O)c1ccccc1)c1nnnn12,-6.09%
16,Cc1ccc(C)c(OCc2cc(C(=O)N3CCN(c4cnccn4)CC3)no2)c1,-81.7%
17,Clc1cccc(Cl)c1C[n+]1ccc2ccccc2c1.[Br-],22.2%
18,COc1ccc([C@H]2CC(=O)C=C(c3ccc(C)cc3)C2)cc1OC,12.7%
19,CCCCn1c(SCC(=O)Nc2ccccc2C(F)(F)F)nc2ccsc2c1=O,2.61%
20,Oc1ccc(/C=N/n2c(-c3ccccc3)n[nH]c2=S)cc1,19.2%
21,CCn1c(O)c(/C=N/NC(=O)c2ccccc2)c(=O)[nH]c1=S,13.5%
22,NC(=O)Cn1nnc(-c2ccc(C(F)(F)F)cc2)n1,-4.44%

row,SMILES,"hERG current change (%, negative = inhibition) at 10uM"
1,CC(C)(C)OC(=O)N1CCC[C@H]1c1nnc(SCc2ccc(Cl)cc2)o1,-20.8%
2,C=CCn1c(SCC(=O)Nc2cccc(C)c2)nnc1-c1cnccn1,-71.9%
3,COCCNC(=O)c1onc(CSc2ccc(C(C)C)cc2)c1C(=O)O,5.52%
4,COc1ccc(/C=N\NC(=O)c2cccc([N+](=O)[O-])c2)cc1Cn1cc([N+](=O)[O-])cn1,-35.8%
5,CN(C)C(=O)N1CCN(C(=O)N2CCOCC2)CC1,18.8%
6,CN1C(=O)C(=Cc2ccccc2Oc2ccc(Cl)c(F)c2)C(=O)N(C)C1=O,5.34%
7,Cc1cccc(CN2CCN(CCCc3ccccc3)CC2)c1.O=C(O)C(=O)O,-75.4%
8,O=C(Nc1nncs1)c1ccc(Br)c(S(=O)(=O)N2CCCC2)c1,8.33%
9,CC(=O)Cc1nsc(NC(=O)c2ccc(-c3ccc(F)cc3)o2)n1,-17.5%
10,COc1cc(/C=C2\Oc3cc(O)ccc3C2=O)ccc1O,8.22%
11,COc1ccc(OC)c(NC(=O)CCC(=O)Nc2nnc(C(C)C)s2)c1,16%
12,CC(NC(=O)c1ccc(CS(=O)(=O)c2cccc(C(F)(F)F)c2)o1)c1ccc2c(c1)OCCO2 (stereo not drawn),-7.57%
13,CC(C)[C@H](NC(=O)c1ccccc1)C(=O)OCC(=O)c1ccc(S(=O)(=O)N2CCCCC2)cc1,-23.8%
14,FC(F)(F)c1cc(N2CCOCC2)nc(-c2ccccc2)n1,-0.159%
15,O=C(O)Cc1cn(Cc2ccc(F)cc2)c2ccccc12,7.35%
16,CC(C)(C)c1ccc(C(=O)NCCC(=O)NCc2ccco2)cc1,-36.1%
17,Cc1ccc(NC(=O)NNC(=O)C2CC(c3cccs3)=NO2)cc1 (stereo not drawn),24.8%
18,CCCC(=O)Nc1ccc(Cl)c(NC(=O)c2ccc([N+](=O)[O-])cc2Cl)c1,-51.2%
19,O=C(c1ccc([N+](=O)[O-])cc1)N1CCSC1c1cccc(Cl)c1 (stereo not drawn),-69.3%
20,O=C(Nc1nc2ccc(SC(F)F)cc2s1)c1ccc2c(c1)S(=O)(=O)c1ccccc1C2=O,-12.5%
21,CCOC(=O)C1(Cc2ccccc2C)CCCN(C(=O)CCc2c(C)noc2C)C1 (stereo not drawn),-29.3%
22,Cc1ccc(S(=O)(=O)N2CCN(C(=O)CN3C(=O)NC4(CCCC4)C3=O)CC2)c(C)c1,-1.95%

row,SMILES,"hERG current change (%, negative = inhibition) at 10uM"
1,CCOC(=O)c1ccc(-n2c(N)c(C(=O)NCc3ccco3)sc2=S)cc1,5.44%
2,O=[N+]([O-])c1cc(/C=N/OCc2c(Cl)cccc2Cl)ccc1N1CCOCC1,-3.25%
3,COc1cc(OC)cc(-c2nnc(NC(=O)Cc3ccc(F)cc3)o2)c1,23.8%
4,Cc1ccc(S(=O)(=O)NC(=O)Nc2ccc(Cl)cn2)cc1,0.493%
5,CCOC(=O)c1[nH]c2ccccc2c1NC(=O)CCN1CCN(C(=O)OCC)CC1,-11.7%
6,CCCc1nnc(NC(=O)OCC)s1,24.1%
7,Cn1ncc2c(NCc3cccc(C(F)(F)F)c3)c(C(=O)O)cnc21,24.3%
8,C/C(=N\NC(=O)COc1ccccc1-c1ccccc1)c1ccccn1,-6.93%
9,CC(=O)Oc1ccc(-c2cc3ccc(OC(C)=O)cc3oc2=O)cc1,6.12%
10,COc1ccc(/C=C/C2=NNC(=O)CC2)cc1,7.41%
11,CC(=O)N1CCC(C(=O)c2ccc(Cl)cc2)CC1,-0.317%
12,CN1C(=O)NC(=O)C(C)(C2=CCCCC2)C1=O (stereo not drawn),18%
13,COC(=O)c1ccc(NC(=O)C2CCN(C(=O)c3cc(OC)c(OC)c(OC)c3)CC2)cc1,6.73%
14,CCC1Oc2ccccc2C(=O)N(CC(=O)c2ccc3c(c2)OCCO3)C1=O (stereo not drawn),0.31%
15,O=C(NCC(=O)N1CCN(S(=O)(=O)c2ccccc2)CC1)c1ccc(Br)o1,-21.5%
16,O=c1cc(N2CCc3ccccc3C2)[nH]c(=O)n1-c1ccc(Br)cc1,11.5%
17,Cc1cc(C)c([N+](=O)[O-])cc1NC(=O)CCS(=O)(=O)c1ccccc1,-13.4%
18,O=C(Nc1ccc(F)cc1)Nc1cnccn1,15.9%
19,COc1ccc(O)c(/C=N/N2CCCCC2)c1,10.8%
20,CCOC(=O)C1=C(COC(=O)C(CC)Oc2ccccc2)NC(=O)NC1C (stereo not drawn),-2.79%
21,COc1ccccc1N1CCN(C(=O)CN(Cc2ccccc2)S(C)(=O)=O)CC1,-14.2%
22,Cc1ccccc1NC(=O)C1CCCN(C(=O)NCc2ccccc2)C1 (stereo not drawn),1.82%

row,SMILES,"hERG current change (%, negative = inhibition) at 10uM"
1,Cc1cc(C)cc(N(CC(=O)O)S(=O)(=O)c2c(C)noc2C)c1,4.22%
2,CCn1c(SCC(=O)Nc2cc(C)on2)nnc1-c1ccncc1,9.32%
3,Cc1onc(-c2c(Cl)cccc2Cl)c1NC(=O)N1CCSCC1,9.61%
4,Cc1ccc(/C=N/NC(=O)CN2CCN(Cc3ccccc3)CC2)o1,-11.7%
5,COc1cccc2cc(C(=O)C3=C(O)C(=O)N(c4cc(C)on4)C3c3cccs3)oc12 (stereo not drawn),22.9%
6,COc1ccccc1C(c1nnnn1C(C)(C)C)N1CCN(C(=O)c2ccco2)CC1 (stereo not drawn),-53.9%
7,COc1ccc(-c2n[nH]c(=S)o2)c(OC)c1,25.1%
8,Cc1ccc(NC(=S)N2CCCC(CO)C2)c(C)c1 (stereo not drawn),21.4%
9,Cc1nc2ccccc2c(=O)n1NC(=O)c1ccc(F)cc1Cl,-4.62%
10,O=C(NCc1ccc(Cl)cc1)c1ccc(Br)o1,-30.4%
11,CCN1CCN(CCNC(=O)c2ccc3c(c2)NC(=O)/C(=C\c2ccc(OC)c(OC)c2)S3)CC1,-7.23%
12,O=C(CO/N=C/c1ccccc1OC(F)F)N1CCc2ccccc21,17.9%
13,C=CCCC(=O)Nc1nc(C)c(-c2csc(Nc3ccc(Cl)cc3Cl)n2)s1,15.4%
14,COc1ccc(-c2ccc(OC(=O)NC3CCS(=O)(=O)C3)cc2)cc1 (stereo not drawn),7.68%
15,CC(=O)Oc1ccc(C2(C)CC(C)(C)Oc3cc(OC(C)=O)ccc32)c(OC(C)=O)c1 (stereo not drawn),8.4%
16,O=C(C1CCCN(Cc2ccncc2)C1)N1CCc2ccccc2C1.O=C(O)C(=O)O (stereo not drawn),-19.2%
17,CCCC(=O)Nc1ccc(C(=O)Nc2cccc(OC)c2)cc1,-29.5%
18,COc1cccc(C(c2sc3ncnn3c2O)N2CCc3ccccc3C2)c1 (stereo not drawn),-3.31%
19,COc1ccc(OC)c(C2CC(=O)NC(SC)=C2C#N)c1 (stereo not drawn),5.48%
20,O=C(O)CCn1c(=S)oc2ccccc21,-0.618%
21,C=CCn1c(-c2ccc(OC)cc2)csc1=Nc1c(C)n(C)n(-c2ccccc2)c1=O,-26.5%
